Source: publication PMC6919601, “Identification of Plasmodium dipeptidyl aminopeptidase allosteric inhibitors by high throughput screening” (PLoS ONE, 2019)
“And” between values parts separate entries of the source, which are not always exact repeats. Equal values may be shown once. In all, about 110,000 compounds went through this assay and about 230 (0.21%) showed an effect of 50% or more. This is one part of the list.

Biological target: DPAP1 (Plasmodium falciparum, UniProt Q8IIJ9)
Assay: primary screen, percent inhibition; read by cleavage of a fluorogenic dipeptide substrate; higher = more effect of the substance
Set-up: species or system P. falciparum D10 trophozoite lysates; single well
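Also: 30 min substrate incubation versus DMSO and 10 µM JCP410 controls.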

Chain of DPAP1 (Q8IIJ9 whole entry, looked up): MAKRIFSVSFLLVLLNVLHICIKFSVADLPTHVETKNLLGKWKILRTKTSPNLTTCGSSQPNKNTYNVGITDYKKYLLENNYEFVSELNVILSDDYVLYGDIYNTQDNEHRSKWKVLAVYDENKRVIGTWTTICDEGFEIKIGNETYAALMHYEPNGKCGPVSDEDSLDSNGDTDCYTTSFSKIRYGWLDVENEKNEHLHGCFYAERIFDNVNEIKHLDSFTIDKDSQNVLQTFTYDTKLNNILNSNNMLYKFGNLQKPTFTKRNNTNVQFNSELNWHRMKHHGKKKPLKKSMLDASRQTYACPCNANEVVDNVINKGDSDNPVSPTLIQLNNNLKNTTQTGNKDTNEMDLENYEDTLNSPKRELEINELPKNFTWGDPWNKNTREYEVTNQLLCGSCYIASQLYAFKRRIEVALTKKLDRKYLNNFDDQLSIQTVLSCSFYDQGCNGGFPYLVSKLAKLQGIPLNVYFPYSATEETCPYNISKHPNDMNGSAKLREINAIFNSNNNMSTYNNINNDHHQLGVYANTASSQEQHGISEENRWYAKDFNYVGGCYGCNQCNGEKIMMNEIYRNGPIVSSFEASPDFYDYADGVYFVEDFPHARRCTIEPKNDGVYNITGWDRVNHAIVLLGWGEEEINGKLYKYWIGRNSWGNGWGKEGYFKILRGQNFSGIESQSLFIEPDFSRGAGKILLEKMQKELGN

Row | SMILES | % Inhibition @ 10 uM
1 | Cc1[nH]c(-c2ccc(F)cc2)cc1C(=O)NCCC(C)C | 3.64%
2 | COc1ccccc1/C=C1\C(=O)NC(=S)N(c2ccc(Cl)cc2)C1=O | -0.436%
3 | O=C(O)CNC(=O)/C(=C\c1ccc2c(c1)OCO2)NC(=O)c1ccccc1 | -1.5%
4 | CC(=O)N(C)c1ccc(NC(=O)C2CC2)cc1 | 3.58%
5 | C=CCn1c(C(C)O)nc2ccccc21 (stereo not drawn) | 1%
6 | CC(NCc1c(C(=O)O)n(Cc2ccccc2)c2ccccc12)c1ccccc1 (stereo not drawn) | 1.93%
7 | CN(C)C(=O)c1ccc(-n2nc(C(F)(F)F)c3c2CCCC3)cc1 | -2.28%
8 | COc1ccc(C2=NN(CCC(=O)NC3CCCC(C)C3C)C(=O)CC2)cc1 (stereo not drawn) | 1.62%
9 | Cc1ccc2c(c1)-c1onc(C(=O)NCC3CCCO3)c1CO2 (stereo not drawn) | -1.69%
10 | CC(=O)C1=C(O)C(=O)N(c2nc3ccccc3s2)C1c1ccccc1 (stereo not drawn) | 1.52%
11 | CCCCc1ccc(C(=O)Nc2ccccc2O)cc1 | -11%
12 | COc1ccc(-c2ccc(C(=O)O)c(Cl)n2)cc1 | 2.08%
13 | CCn1c(=O)c2c3c(sc2n2c(SCc4ccc(OC)cc4)nnc12)CCCC3 | -3.13%
14 | Cc1cc(C)c(/C=C(\C#N)C(N)=O)c(C)c1 | 6.49%
15 | Cc1cc(C)c(S(=O)(=O)NC2CCSC2=O)c(C)c1 (stereo not drawn) | 0.135%
16 | Cc1ccc(C2NC(=O)c3ccccc3O2)cc1 (stereo not drawn) | -5.42%
17 | CCCCNC(=O)OCCNS(=O)(=O)c1cccc([N+](=O)[O-])c1 | -4.02%
18 | CC(c1ccc(C2CCCC2)cc1)N(C)C (stereo not drawn) | 0.658%
19 | CC(C)N(CCCNC(=O)C1CCN(c2nnc(N3CCCC3=O)s2)CC1)Cc1ccccc1 | 5.42%
20 | CC(C)(C)NCCOc1cccc(Cl)c1Cl | 2.16%
21 | CC1(C)CC2=NC3=C(C(=O)CC(C)(C)C3)C(c3cccc(Br)c3)C2=C(O)C1 (stereo not drawn) | -0.413%
22 | CC1CCCC(NC2CC(=O)N(c3ccccc3)C2=O)C1C (stereo not drawn) | 5.94%
23 | O=C(Nc1ccncc1)c1ccc(NS(=O)(=O)c2cccc(Cl)c2)cc1 | 2.17%
24 | COc1cc2c(cc1OC)C(C(=O)NCc1cccnc1)C(c1cccs1)N(C)C2=O (stereo not drawn) | 4.06%
25 | Cc1ccccc1-c1nc(CN2CCC(C(=O)NCc3cccs3)CC2)c(C)o1 | -4.71%
26 | COc1cccc2c(O)c(NC(=O)N3CCC(CO)CC3)cnc12 | 7.04%

Row | SMILES | % Inhibition @ 10 uM
27 | CN1C(=O)/C(=C\c2cccc(O)c2)S/C1=N/c1ccccc1 | -4.43%
28 | CCOC(=O)c1ccc(COc2ccc(C(C)C)cc2)o1 | 0.413%
29 | O=C(Nc1cccc2c1CCCC2)C1CCCCC1 | 4.22%
30 | Cc1cc(C)c2c(n1)sc1c(N3CCN(Cc4ccc(Cl)cc4)CC3)ncnc12 | 1.72%
31 | Cc1ccc2nc3c(cc(C(N)=O)c(=N)n3CCN3CCOCC3)c(=O)n2c1 | 3.6%
32 | CC1CC(C)CN(C(=O)CSc2nnc(-c3ccco3)o2)C1 (stereo not drawn) | -4.03%
33 | COc1ccc2[nH]c(C)c(CCN3C(=O)C4CCCCC4C3=O)c2c1 (stereo not drawn) | -3.34%
34 | Cc1ccc(S(=O)(=O)N(C)c2ccc(C(=O)N3CCCCC3)cc2)cc1 | -4.21%
35 | CCn1cc(C(=O)Nc2cccc(Br)c2)c(C)n1 | -3.12%
36 | COCCCNC(=O)NCc1cccn1Cc1ccccc1 | 3.64%
37 | Cc1cc(CNC(=O)c2cc3ccccc3oc2=O)c2ccccc2n1 | -5.96%
38 | COc1ccc2[nH]c3c(=O)n(CCCCCC(=O)NCc4ccccc4OC)c(=S)[nH]c3c2c1 | -0.431%
39 | O=C(NC1CCCCC1)c1sc2ccccc2c1Cl | -6.22%
40 | OC1CC2CCC(C1)N2CCOC(c1ccc(F)cc1)c1ccc(F)cc1 (stereo not drawn) | 0.343% and -2.29%
41 | CC(C)CC(C(=O)NC1CCCCC1C)N1C(=O)c2ccccc2C1=O (stereo not drawn) | 4.47%
42 | COc1ccccc1CNCc1ccc(C(F)(F)F)cc1 | -7.02%
43 | O=C1CC(N2CCN(c3ncccn3)CC2)C(=O)N1c1ccc(Br)cc1 (stereo not drawn) | -3.12%
44 | O=C(NCCc1ccc(F)cc1)C(=O)NC1CCCCC1 | 4.68%
45 | CCc1ccc(C2C3=C(O)CC(c4ccccc4)CC3=NC(C)=C2C(=O)OCCOC)cc1 (stereo not drawn) | -0.053%
46 | COc1cccc(-c2nc(CS(=O)(=O)CC(=O)N3CCN(C4CCCCC4)CC3)c(C)o2)c1 | 1.55%
47 | CCOC(=O)c1c(C)[nH]c(C)c1S(=O)(=O)N(C)Cc1ccccc1 | -1.79%
48 | C=CCOc1c(Br)cc(CNCC(C)O)cc1OC (stereo not drawn) | -7.01%
49 | CCc1ccccc1NC(=O)c1cccc(Br)c1 | -7.06%
50 | C=CCNCC(=O)Nc1sc2c(c1C(=O)OCC)CCCC2 | -2.13%
51 | COc1ccc(S(=O)(=O)C(CC(=O)c2ccccc2)c2ccccc2)cc1 (stereo not drawn) | 2.17%
